From PubChem BioAssay AID652104 (National Center for Advancing Translational Sciences (NCATS), 2013)
Hit rate of the full screen: of about 410,000 compounds, about 7,200 (1.8%) were called active. The inconclusive results got no clear call from the source; some entries with a clear call stand among them for comparison. Calls come from the whole dose curve; as a rule, active = well fitted activation curve with a large enough effect; inconclusive = small, poorly fitted or top-dose-only effect, or another doubt; inactive = no such curve, though single readings can be large or run the other way. Where the call is inconclusive, the potency comes from a doubtful curve fit.

Assay: qHTS of TDP-43 Inhibitors; note: nearly all actives have a fitted effect of over 50% in size; for growth rescue (activation): % of control where 0% means no effect
Details: TDP-43 expressing yeast growth rescue, BacTiter-Glo, 24 h; growth rescue (activation): at 46.1 µM (top of the series) unless noted
Summary of the method: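 Yeast expressing TDP-43 (pregrown in raffinose, seeded at OD600=0.02 in galactose medium) exposed to compounds 24 hr at 30 deg C. Growth read by BacTiter-Glo luminescence; rescue of toxicity appears as increased signal.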
Potency is the fitted concentration of half-maximal effect; tags give direction and shape of the fitted curve.

Potency, inconclusive:
Cc1ccc(NC(=O)c2cnccn2)cc1C 3.55 µM [activator, partial curve]
COc1ccc(OCc2n[nH]c(=S)o2)cc1 0.562 µM [activator, full curve]
COc1ccc(C2(C)NC(=O)N(CC3CCCCC3)C2=O)cc1 (stereo not given) 22.4 µM [activator, single point]
Cc1ccc(S(=O)(=O)N(C)C(C)CCc2ccco2)cc1 (stereo not given) 12.6 µM [activator, partial curve]
Nc1ccc2ccccc2c1[N+](=O)[O-] 11.2 µM [activator, single point]
CC1(CCc2ccccc2)NC(=S)N(c2ccc(Cl)cc2)N1 (stereo not given) 12.6 µM [activator, partial curve]
Clc1ccc(CON/C=N/c2ncnc3sccc23)cc1 3.16 µM [activator, partial curve]
O=C1C(=Cc2cccs2)C(=O)c2ccccc21 35.5 µM [activator, single point]
O=C(c1cnn2c1NC(c1ccco1)CC2C(F)(F)F)N1CCN(c2cccc(Cl)c2)CC1 (stereo not given) 35.5 µM [activator, single point]
Cc1ccc(CNC(=O)CCc2c(C)nc3c(c(C)nn3-c3ccc(C)cc3)c2C)cc1 35.5 µM [activator, partial curve, poor fit]
COc1ccc(-c2cccc(C3CC=CC4C3C(=O)N(Cc3ccccc3)C4c3ccc(OC)c(Cl)c3)c2)cc1 (stereo not given) 11.2 µM [activator, partial curve]

Potency, active:
CCOC(=O)/C(=N/Nc1ccc(OC)cc1)N1CCCc2ccccc21 12.6 µM
COc1cc(Nc2nc(SCc3cccc(Cl)c3)nc3ccccc23)cc(OC)c1 17.8 µM
CCCCCCCCN1C(=O)[C@H](CC(=O)NCc2ccc(OC)c(OC)c2)C[C@@]2(C(=O)OC)CCCCC=C12 20 µM
Cc1c(CCCl)c(Cl)n2c(nc3ccccc32)c1C#N 7.08 µM
C=C1c2nc3ccccc3n2C=C(c2ccc(C)cc2)N1c1ccccc1 14.1 µM

Potency, inactive:
COC(=O)c1ccccc1NC(=S)NC(=O)COc1ccc(C(C)C)cc1
Cc1ccc(C2=NOC3(CC(=O)N(c4ccccc4)C3=O)C2)cc1 (stereo not given)
CC1=C(c2ccc(C(C)C)cc2)S(=O)(=O)NC1=NCc1ccccc1C

Growth rescue (activation), inconclusive:
O=C(c1cc2cc(Cl)ccc2o1)N1CCCCCC1 32.8% [activator]
